From PubChem BioAssay AID330 (DTP/NCI, 2004)
Toxic doses and inconclusive results are not listed. Certain results were filed several times, with different values. This is not the full list of results. There may be further records. Values given together differ for a reason that is not stated; they may come from other doses, times, organisms or constructs than stated. Records carry a tag for their origin. Letters count within one entry.

Tested on: P388 leukemia ip, CD2F1 mice, survival T/C
Test: NCI In Vivo Anticancer Drug Screen. Data for tumor model P388 Leukemia (intraperitoneal) in CD2F1 (CDF1) mice
Conditions: endpoint: median survival time, higher = longer survival

COc1cccc2c1C(=O)c1c(O)c3c(c(O)c1C2=O)CC(O)(C(C)=O)CC3OC1CC(N)C(O)C(C)O1 (centres undefined)
T/C (dose: 11.7 mg/kg/injection, schedule: Q01DX009 (ip), vehicle: saline): 115 % of control and 155 % of control | T/C (dose: 20.0 mg/kg/injection, schedule: Q01DX009 (ip), vehicle: water): 87 % of control, 94 % of control [sample A] and 90 % of control, 113 % of control [sample B] and 105 % of control, 106 % of control [sample C] and 114 % of control, 192 % of control [sample D] and 116 % of control, 181 % of control [sample E]

COc1cccc2c1C(=N)c1c(O)c3c(c(O)c1C2=O)C[C@@](O)(C(O)CO)C[C@@H]3OC1CC(N2CCOCC2)C(O)C(C)O1 (some centres undefined)
T/C (dose: 25.0 mg/kg/injection, schedule: Q04DX003 (ip), vehicle: water): 111 % of control and 159 % of control

COc1cccc2c1C(=O)c1c(O)c3c(c(O)c1C2=O)C[C@@](O)(C(O)O)C[C@@H]3OC1CC(N)C(O)C(C)O1 (some centres undefined)
T/C (dose: 50.0 mg/kg/injection, schedule: Q04DX003 (ip), vehicle: water): 121 % of control and 153 % of control
